Reference: article PMC3328386 (The Journal of Cell Biology, 2012)

Molecular target: T1, recombinant HERC2 ZZ domain (amino acids 2702–2755), WT (human, UniProt O95714 2702-2755)
T1 sequence: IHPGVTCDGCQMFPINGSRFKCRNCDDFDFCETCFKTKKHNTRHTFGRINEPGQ
Assay: ITC

stoichiometry N: 1
B1: recombinant SUMO1 (natural protein)
chain: not shown
